Measurements reported in a collection of fitness landscapes (doi:10.1016/j.celrep.2020.107928).
The full ranking holds about 81,000 sequences; the median of “one-hybrid fitness for binding parS DNA” is about -0.17, and the highest 2% start at about 0.51. The list shows a part of the results.

B1: Caulobacter ParB omega fusion; a variant is named by its letters at X, in order, B8GW30 (parent)
chain: MESVVVGEPGMSEGRRGLGRGLSALLGEVDAAPAQAPGEQLGGSREAPIEILQRNPDQPRRTFREEDLEDLSNSIREKGVLQPILVRPSPDTAGEYQIVAGERAWRAAQRAGLKTVPIMVRELDDLAVLEIGIIENVQRADLNVLEEALSYKVLMEKFERTQENIAQTIGKSXSHVANXMRLLXLPDEVQSYLVSGELTAXHARAIAAAADPVALAKQIIEGGLSVRETEALARKAPNLSAGKSKGGRPPRVKDTDTQALESDLSSVLGLDVSIDHRGSTGTLTITYATLEQLDDLCNRLTRGI

Variants of: B1
Test: one-hybrid fitness for binding parS DNA (scaled: cognate 1, non-cognate 0); higher = stronger binding
Details: with parS DNA site
Summary of the method: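 Values were rescaled so that cognate is 1 and non-cognate is 0. Each is a fitness, the log change in a variant's read ratio to wild type from Illumina reads of plasmids before and after selection, with three replicate libraries pooled and variants under 10 reads dropped. Selection of the Caulobacter ParB libraries, four specificity codons randomised, used E. coli USO with a HIS3 reporter, site 19 bp from the promoter, on M9-minus-histidine with 0.1 mM IPTG and 5 mM 3-AT for 48 hours at 37°C.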

| Variant | one-hybrid fitness for binding parS DNA |
| --- | --- |
| LHVL | ≤ 0.2 |
| DKAS | ≤ 0.2 |
| KAVR | ≤ 0.2 |
| RMTQ | ≤ 0.2 |
| QQAM | ≤ 0.2 |
| TPTS | ≤ 0.2 |
| FAES | ≤ 0.2 |
| QSAI | ≤ 0.2 |
| KFRW | ≤ 0.2 |
| YMPG | ≤ 0.2 |
| CTLA | ≤ 0.2 |
| KHII | ≤ 0.2 |
| YFSS | 0.215 |
| AHHS | ≤ 0.2 |
| LHLS | ≤ 0.2 |
| EHPS | ≤ 0.2 |
| YMTL | ≤ 0.2 |
| QMRM | ≤ 0.2 |
| PSIL | ≤ 0.2 |
| HAYP | ≤ 0.2 |
| ISTV | ≤ 0.2 |
| PMAR | ≤ 0.2 |
| TVRI | ≤ 0.2 |
| SSPG | ≤ 0.2 |
| RHAK | ≤ 0.2 |

| Variant | one-hybrid fitness for binding parS DNA |
| --- | --- |
| TNFT | ≤ 0.2 |
| IAKV | ≤ 0.2 |
| KMAE | ≤ 0.2 |
| INHG | ≤ 0.2 |
| HAVG | ≤ 0.2 |
| AFWR | ≤ 0.2 |
| EGYC | ≤ 0.2 |
| GLSA | ≤ 0.2 |
| GCAN | ≤ 0.2 |
| DNQK | ≤ 0.2 |
| DSGG | ≤ 0.2 |
| KIPC | ≤ 0.2 |
| GYVE | ≤ 0.2 |
| QRYC | ≤ 0.2 |
| QAVQ | ≤ 0.2 |
| FMDR | ≤ 0.2 |
| FRLM | ≤ 0.2 |
| SYYT | ≤ 0.2 |
| YNDG | ≤ 0.2 |
| PWIR | ≤ 0.2 |
| DGLC | ≤ 0.2 |
| NPWC | ≤ 0.2 |
| GLWC | ≤ 0.2 |
| EPYE | ≤ 0.2 |
| HRPV | ≤ 0.2 |

| Variant | one-hybrid fitness for binding parS DNA |
| --- | --- |
| IYRL | ≤ 0.2 |
| QNDS | ≤ 0.2 |
| RGTF | ≤ 0.2 |
| DDPN | ≤ 0.2 |
| PHTA | ≤ 0.2 |
| HRDC | ≤ 0.2 |
| FEYR | ≤ 0.2 |
| VDQH | ≤ 0.2 |
| PRLT | ≤ 0.2 |
| QNIP | ≤ 0.2 |
| TDLI | ≤ 0.2 |
| CIHW | ≤ 0.2 |
| TETQ | ≤ 0.2 |
| SLKH | ≤ 0.2 |
| APHT | ≤ 0.2 |
| SHHT | ≤ 0.2 |
| RHTY | 0.41 |
| KFGT | ≤ 0.2 |
| MKRD | ≤ 0.2 |
| DRLG | ≤ 0.2 |
| MRAD | ≤ 0.2 |
| HHAS | ≤ 0.2 |
| FVIR | ≤ 0.2 |
| YFES | ≤ 0.2 |
| DHNG | ≤ 0.2 |

| Variant | one-hybrid fitness for binding parS DNA |
| --- | --- |
| FCHT | ≤ 0.2 |
| LSYC | ≤ 0.2 |
| MRKH | ≤ 0.2 |
| AKDD | ≤ 0.2 |
| HIPF | ≤ 0.2 |
| LRSG | ≤ 0.2 |
| FLYR | ≤ 0.2 |
| ARKR | ≤ 0.2 |
| VSWS | ≤ 0.2 |
| SQCS | ≤ 0.2 |
| WQRG | ≤ 0.2 |
| TPAF | ≤ 0.2 |
| LFIV | ≤ 0.2 |
| GNPV | ≤ 0.2 |
| WPLG | ≤ 0.2 |
| EYYC | ≤ 0.2 |
| FTYI | ≤ 0.2 |
| QIPD | ≤ 0.2 |
| EKAN | ≤ 0.2 |
| KMVG | ≤ 0.2 |
| GQRS | ≤ 0.2 |
| RNIW | ≤ 0.2 |
| GTFW | ≤ 0.2 |
| YPNC | ≤ 0.2 |
| DGVT | ≤ 0.2 |

| Variant | one-hybrid fitness for binding parS DNA |
| --- | --- |
| IGDT | ≤ 0.2 |
| QFMV | ≤ 0.2 |
| DSGW | ≤ 0.2 |
| TPCM | ≤ 0.2 |
| QHCA | ≤ 0.2 |
| TNSF | ≤ 0.2 |
| PIND | ≤ 0.2 |
| PVCS | ≤ 0.2 |
| EGCT | ≤ 0.2 |
| HTFF | ≤ 0.2 |
| QAPV | ≤ 0.2 |
| RTPQ | ≤ 0.2 |
| GFGG | ≤ 0.2 |
| MRHK | ≤ 0.2 |
| PANM | ≤ 0.2 |
| FAFI | ≤ 0.2 |
| PMIP | ≤ 0.2 |
| CMQS | ≤ 0.2 |
| DTGT | ≤ 0.2 |
| WLYG | ≤ 0.2 |
| RCSE | ≤ 0.2 |
| NRRI | ≤ 0.2 |
| ASHS | ≤ 0.2 |
| VWAD | ≤ 0.2 |
| SHHE | ≤ 0.2 |

| Variant | one-hybrid fitness for binding parS DNA |
| --- | --- |
| LDWR | ≤ 0.2 |
| GCPM | ≤ 0.2 |
| KTFF | ≤ 0.2 |
| QYHY | ≤ 0.2 |
| MPNG | ≤ 0.2 |
| QYML | ≤ 0.2 |
| VDTI | ≤ 0.2 |
| PMCT | ≤ 0.2 |
| HELV | ≤ 0.2 |
| KSVW | ≤ 0.2 |
| RSDN | 0.313 |
| KKQM | ≤ 0.2 |
| WIKT | ≤ 0.2 |
| NRQW | ≤ 0.2 |
| TNLR | ≤ 0.2 |
| AIQT | ≤ 0.2 |
| QCFL | ≤ 0.2 |
| PVWF | ≤ 0.2 |
| MYVI | ≤ 0.2 |
| ERSF | ≤ 0.2 |
| PRDS | ≤ 0.2 |
| PHQY | ≤ 0.2 |
| YWMS | ≤ 0.2 |
| YEKK | ≤ 0.2 |
| TWNS | ≤ 0.2 |

| Variant | one-hybrid fitness for binding parS DNA |
| --- | --- |
| YVMR | ≤ 0.2 |
| GTKM | ≤ 0.2 |
| ASIW | ≤ 0.2 |
| KSTS | ≤ 0.2 |
| EAPA | ≤ 0.2 |
| MDCF | ≤ 0.2 |
| AAKH | ≤ 0.2 |
| LATI | ≤ 0.2 |
| IQMR | ≤ 0.2 |
| QSSP | ≤ 0.2 |
| TVWR | ≤ 0.2 |
| QLFW | ≤ 0.2 |
| GHAR | ≤ 0.2 |
| WTDR | ≤ 0.2 |
| VLGS | ≤ 0.2 |
| RYTV | ≤ 0.2 |
| IYGS | ≤ 0.2 |
| NKSV | ≤ 0.2 |
| FIKS | ≤ 0.2 |
| DIMG | ≤ 0.2 |
| RIWM | 0.361 |
| QRVW | ≤ 0.2 |
| SMTL | ≤ 0.2 |
| QTCC | ≤ 0.2 |
| ARRN | ≤ 0.2 |

| Variant | one-hybrid fitness for binding parS DNA |
| --- | --- |
| AERY | ≤ 0.2 |
| PYSW | ≤ 0.2 |
| LMPK | ≤ 0.2 |
| HGRL | ≤ 0.2 |
| PVQV | ≤ 0.2 |
| TVLV | ≤ 0.2 |
| MFVW | ≤ 0.2 |
| LGTF | ≤ 0.2 |
| RQSR | ≤ 0.2 |
| CTPT | ≤ 0.2 |
| HAWR | ≤ 0.2 |
| HFFG | ≤ 0.2 |
| SAKL | ≤ 0.2 |
| ETIG | ≤ 0.2 |
| AMSE | ≤ 0.2 |
| TPYV | ≤ 0.2 |
| NVNC | ≤ 0.2 |
| MACL | ≤ 0.2 |
| HPRT | ≤ 0.2 |
| NPLC | ≤ 0.2 |
